Assay results taken from the antibiotic and cytotoxicity screens of Wong et al. (2023).
The list shows a part of the results.

What was measured:
[1] = test system: HSkMC (human skeletal muscle cells); assay: cytotoxicity call (relative viability < 0.9); details: 10 µM
[2] = test system: HepG2; assay: cytotoxicity call (relative viability < 0.9); details: 10 µM
[3] = test system: S. aureus RN4220; assay: growth inhibition call (relative growth <= 0.2); details: 50 µM

SMILES | cytotoxicity call [1] | cytotoxicity call [2] | growth inhibition call [3]
COc1ccc(NC(=O)N(C)C[C@@H]2OCCCC[C@H](C)Oc3ccc(NS(=O)(=O)c4ccc(Cl)cc4)cc3C(=O)N([C@@H](C)CO)C[C@@H]2C)cc1 | inactive | inactive | inactive
C[C@@H]1CN([C@@H](C)CO)C(=O)c2c(c3ccccc3n2C)-c2ccccc2CO[C@@H]1CN(C)Cc1cccc2c1OCCCO2 | inactive | inactive | inactive
COC(=O)[C@@H]1C[C@H](C#N)N[C@@H]1c1ccco1 | inactive | inactive | inactive
C[C@@H]1CCCCO[C@H](CN(C)S(=O)(=O)c2ccccc2)[C@@H](C)CN([C@H](C)CO)C(=O)c2cc(NC(=O)CCCCCC(=O)Nc3ccccc3N)ccc2O1 | inactive | inactive | inactive
COc1ccc2c3c([nH]c2c1)[C@@H](CO)N(C[C@]13CCN(CC1)Cc1ccccc1F)S(=O)(=O)c1cn(cn1)C | inactive | inactive | inactive
C[C@@H]1CN([C@@H](C)CO)C(=O)CCCn2nncc2CO[C@@H]1CN(C)C(=O)CCCN(C)C | inactive | inactive | inactive
CCCN(C)C[C@@H]1OCCCC[C@@H](C)Oc2ccc(NC(=O)Nc3ccc(F)cc3)cc2C(=O)N([C@H](C)CO)C[C@H]1C | inactive | inactive | inactive
CCCN1C(C)=C(C(=O)OC)[C@@H](c2cccc([N+](=O)[O-])c2)C(C(=O)ON2CCC(c3ccccc3)(c3ccccc3)CC2)=C1C | active | active | inactive
COc1ccc(S(=O)(=O)Nc2ccc3c(c2)C(=O)N([C@@H](C)CO)C[C@@H](C)[C@@H](CN(C)Cc2ccc(Oc4ccccc4)cc2)O3)cc1 | inactive | active | inactive
CCS(=O)(=O)Nc1ccc2c(c1)C(=O)N(C)C[C@@H](OC)[C@@H](C)CN(Cc1ccccn1)[C@H](C)CO2 | inactive | inactive | inactive
Cc1ccc(CNC(=S)NCCO)cc1 | inactive | inactive | inactive
C[C@@H]1CCCCO[C@@H](CN(C)C(=O)Nc2ccc(F)cc2)[C@H](C)CN([C@@H](C)CO)C(=O)c2cc(NC(=O)c3ccncc3)ccc2O1 | inactive | inactive | inactive
COc1cc2c(cc1OC)CN(CCc1ccc(NC(=O)c3cc(OC)c(OC)cc3NC(=O)c3cnc4ccccc4c3)cc1)CC2 | inactive | active | inactive
Cc1noc(C)c1NC(=O)Nc1ccc2c(c1)C(=O)N([C@H](C)CO)C[C@@H](C)[C@@H](CN(C)C(=O)Nc1ccc3c(c1)OCO3)OCCCC[C@@H](C)O2 | inactive | inactive | inactive
O=C(O)C[C@H]1NC(=O)c2ccccc21 | inactive | inactive | inactive
COC(=O)Nc1nc2cc(C(=O)c3cccs3)ccc2[nH]1 | inactive | inactive | inactive
COc1cccc(NC(=O)N[C@@H]2CC[C@@H](CC(=O)N3CCN(C)CC3)O[C@H]2CO)c1 | inactive | inactive | inactive
N[C@H]1CS(=O)(=O)c2ccccc21 | inactive | inactive | inactive
Cc1ccc(S(=O)(=O)Nc2ccc3c(c2)C(=O)N([C@H](C)CO)C[C@@H](C)[C@@H](CN(C)Cc2ccc(C(F)(F)F)cc2)OCCCC[C@H](C)O3)cc1 | inactive | active | inactive

SMILES | cytotoxicity call [1] | cytotoxicity call [2] | growth inhibition call [3]
CN(C)C(=O)C[C@@H]1CC[C@H](NC(=O)C2CC2)[C@H](CO)O1 | inactive | inactive | inactive
C[C@@H]1CN([C@H](C)CO)C(=O)c2cccc(NC(=O)c3cnccn3)c2O[C@H]1CN(C)C(=O)Nc1ccc2c(c1)OCO2 | inactive | inactive | inactive
C[C@H](CO)N1C[C@H](C)[C@@H](CN(C)Cc2ccc3c(c2)OCO3)Oc2c(NC(=O)Nc3cccc4ccccc34)cccc2C1=O | inactive | inactive | inactive
COc1ccc(-c2cnc3c(c2)C(=O)N([C@@H](C)CO)C[C@@H](C)[C@@H](CN(C)C(=O)C2CCOCC2)O3)cc1 | inactive | inactive | inactive
CN1CCN(C(=O)C[C@@H]2CC[C@@H]3[C@@H](COc4ccc(NC(=O)c5ccc(F)c(F)c5)cc4C(=O)N3C)O2)CC1 | inactive | inactive | inactive
COC(=O)[C@@H](O)c1ccccc1 | inactive | inactive | inactive
C[C@@H]1CCCCO[C@H](CN(C)Cc2ccccc2)[C@@H](C)CN([C@H](C)CO)C(=O)c2cc(NC(=O)C3CCCCC3)ccc2O1 | inactive | inactive | inactive
COc1ccc(NC(=O)Nc2ccc3c(c2)C(=O)N([C@H](C)CO)C[C@@H](C)[C@H](CN(C)S(=O)(=O)c2ccccc2)OCCCC[C@H](C)O3)cc1 | inactive | active | inactive
C[C@@H]1CN([C@@H](C)CO)C(=O)CCCn2nncc2CO[C@@H]1CN(C)S(=O)(=O)c1ccc(Cl)cc1 | inactive | inactive | inactive
C[C@H]1CCCCO[C@H](CN(C)C(=O)c2ccccc2)[C@@H](C)CN([C@@H](C)CO)C(=O)c2cc(NC(=O)c3ccccc3)ccc2O1 | inactive | inactive | inactive
COCC(=O)N1c2ccccc2C[C@H]1C(N)=O | inactive | inactive | inactive
CN(C)CC(=O)N[C@@H]1CC[C@H](CCNC(=O)C2CC2)O[C@H]1CO | inactive | inactive | inactive
Nc1nc2nc[nH]c2c(=S)[nH]1 | inactive | active | inactive
C[C@H](CO)N1C[C@H](C)[C@H](CN(C)S(C)(=O)=O)Oc2ncc(C#CC3(O)CCCC3)cc2C1=O | inactive | inactive | inactive
COc1ccc2c3c(n(c2c1)C)[C@H](CO)N(Cc1cc(cc(c1)OC)OC)C[C@]13CCN(CC1)C(=O)CN1CCOCC1 | inactive | inactive | inactive
CC[N+](CC)(CC)CCOc1cccc(OCC[N+](CC)(CC)CC)c1OCC[N+](CC)(CC)CC | inactive | inactive | inactive
C[C@H]1CCCCO[C@@H](CN(C)CC2CC2)[C@@H](C)CN([C@@H](C)CO)C(=O)c2cc(NC(=O)c3ccccc3)ccc2O1 | inactive | inactive | inactive
C[C@H]1CN([C@@H](C)CO)C(=O)c2cccc(NC(=O)CCCCCC(=O)Nc3ccccc3N)c2O[C@@H]1CN(C)Cc1ccc(C(F)(F)F)cc1 | inactive | inactive | inactive
CN(C)CC(=O)N1CC(=O)N2[C@H](CO)[C@H](c3ccc(C#Cc4cccnc4)cc3)[C@H]2C1 | inactive | inactive | inactive
